From paper PMC9574860, “Chemical Toolkit for PARK7: Potent, Selective, and High-Throughput” (Journal of Medicinal Chemistry, 2022) come the findings set out here.

Among all 7,900 compounds or so, about 400 (5.1%) showed an effect of 50% or more. The list shows a part of the results.

This test deals with Parkinson's disease protein 7 (PARK7/DJ1) (human, UniProt Q99497). The experiment in a line: primary screen, percent inhibition; read as competition with a fluorescent probe by fluorescence polarization; higher = more effect of the substance. The settings on record: 100 µM. In a few lines: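 Covalent fragments at 100 μM final were incubated 2 h with 0.2 μM PARK7, then 20 nM probe JYQ-107 added for a further 2 h. Fluorescence polarization read at 480/520 nm; relative FP loss versus reference controls gave remaining enzyme activity.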
Chain of Parkinson's disease protein 7 (PARK7/DJ1) (Q99497 whole entry, looked up, the tested form may be a part): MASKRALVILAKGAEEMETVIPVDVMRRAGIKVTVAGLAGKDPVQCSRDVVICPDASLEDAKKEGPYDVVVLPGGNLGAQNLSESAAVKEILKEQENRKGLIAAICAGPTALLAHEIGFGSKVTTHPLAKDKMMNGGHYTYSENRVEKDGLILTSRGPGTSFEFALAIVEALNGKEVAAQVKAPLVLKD
`O=S(=O)(C=Cc1ccccc1)NCCc1ccccn1`: the Inhibition % is listed as 7.09%.

As to `O=c1[nH]c(-c2cccc(S(=O)(=O)F)c2)nc2sc3c(c12)CCC3`, the Inhibition % was found to be 88.5%.

With `COc1c(Cl)cc(Cl)cc1C=C(C#N)C(N)=O`, the Inhibition % is on record as 6.75%.

As to `CC1CC(N)CCN1C(=O)C=Cc1cc2ccccc2o1` (stereo not shown), the Inhibition % was 2.68%.

Regarding `C=CC(=O)N1CCCNC(=O)C1CC(C)C` (stereo not shown), the Inhibition % came out at 6.41%.

In the case of `O=C1CCC(=O)N1CCSc1nccn1C1CC1`, the Inhibition % is given as 6.45%.

On to `O=C1OCCC1Sc1nc2ccccc2c(=O)[nH]1` (stereo not shown), for which the Inhibition % is listed as 4.69%.

For `CC1(C)OB(c2cccc(C(F)(F)F)c2O)OC1(C)C`, the Inhibition % is given as 0.0918%.

As to `CS(=O)(=O)OCC1CCCN1.Cl` (stereo not shown), the Inhibition % is recorded as -4.21%.

For the compound `C=CC(=O)NCc1nsc2ccccc12`, the Inhibition % came out at 2.25%.

On to `COc1cc2c(cc1NC(=O)CCl)oc1ccccc12`, for which the Inhibition % worked out at 4.67%.

As to `C=CC(=O)N1CCCC1c1nc(C)cs1` (stereo not shown), the Inhibition % is given as 10.9%.

On to `C=CC(=O)NCC1(c2ccccc2F)CC1`, for which the Inhibition % is 6.09%.

As to `C=CC(=O)N1CC(n2cncn2)C1`, the Inhibition % stood at 1.87%.

With `C=CC(=O)N(CC)CC(=O)N1CC(C)N(C)CC1C` (stereo not shown), the Inhibition % came out at 1.97%.

For the compound `C=CC(=O)N1CCC(C)(c2ccccc2)CC1`, the Inhibition % is listed as 11.5%.

As to `CC(NC(=O)CCl)c1ccccc1Cl` (stereo not shown), the Inhibition % is 11.5%.

In the case of `N#Cc1nc(C2CC2)oc1N1CCN(C(=O)C2CC2)CC1`, the Inhibition % was determined as 5.36%.

As for `C1CC2(CCS1)CO2`, the Inhibition % worked out at 3.21%.

As to `C=CC(=O)N(C1CC1)C1CC(=O)NC1=O` (stereo not shown), the Inhibition % is listed as 9.14%.

In the case of `C=CC(=O)N1CCC(c2c(C(=O)O)nnn2C)CC1`, the Inhibition % is reported as 5.22%.

Consider `OB(O)c1ccc(-n2nccc2C2CC2)cc1`, for which the Inhibition % is on record as -0.314%.

As for `COc1ccc(C)cc1S(=O)(=O)n1ccnc1C`, the Inhibition % is 6.27%.

Turning to `C=CC(=O)NC1CC(NC(=O)C2CCC2)C1` (stereo not shown), the Inhibition % is 7.98%.

For the compound `Cn1ncc(CNC(=O)OC(C)(C)C)c1B1OC(C)(C)C(C)(C)O1`, the Inhibition % is listed as 7.89%.

Consider `O=c1[nH]nc(C2CCCN(Cc3cccc(F)c3F)C2)o1` (stereo not shown), for which the Inhibition % is reported as -0.557%.

Regarding `ClCC1COc2ccccc2O1` (stereo not shown), the Inhibition % was 4.9%.

As to `CC1(C)OB(c2ccc(OC(F)F)cc2F)OC1(C)C`, the Inhibition % is given as 3.12%.

Consider `N#CC(=Cc1ccccc1)C(=O)Nc1nncs1`, for which the Inhibition % is on record as 3.58%.

Consider `Cc1cc(C(=O)CCl)c(C)n1C(C)C`, for which the Inhibition % was found to be 96.9%.

For the compound `N#Cc1ncn(CCC(=O)Nc2ccccc2F)n1`, the Inhibition % was 5.17%.

Turning to `C=CC(=O)NCC1CCSC1` (stereo not shown), the Inhibition % came out at 5.45%.

On to `C=CC(=O)N1CCN(C(=O)c2cc(C)no2)CC1`, for which the Inhibition % is 5.39%.

As for `C=CC(=O)NCc1ncc(C)o1`, the Inhibition % is on record as 7.34%.

Regarding `C=CC(=O)NC1CCOCC1`, the Inhibition % amounted to 3.08%.

`Cc1cc(C)c(C(N)=O)c(S)n1`: the Inhibition % is on record as 11%.

As to `C=CC(=O)Nc1ncccn1`, the Inhibition % was found to be 5.18%.

As to `N#Cc1c(F)cccc1N1CCCC(C2OCCO2)C1` (stereo not shown), the Inhibition % came to 12%.

With `Cl.Cl.N#Cc1ccc2c(n1)CCNCC2`, the Inhibition % was found to be 16.4%.

As to `CCC(=O)Nc1ccc(C(=O)CCl)cc1`, the Inhibition % is on record as 4.09%.

For the compound `N#CC(=Cc1ccc(-c2nc3ccccc3s2)o1)C(N)=O`, the Inhibition % is 3.97%.

On to `N#Cc1ncn(CC(=O)N2CCSc3ccccc32)n1`, for which the Inhibition % worked out at 2.82%.

For the compound `O=C(CCl)NCCC1CCCCC1`, the Inhibition % came to 42.5%.

Take `C=CC(=O)NC1CCc2[nH]ncc2C1` (stereo not shown): the Inhibition % worked out at 2.61%.

Consider `C=CC(=O)N(C)Cc1conc1CC`, for which the Inhibition % turned out to be 2.19%.

Take `O=C(O)c1cc(S(=O)(=O)F)ccc1Cl`: the Inhibition % came out at 7.95%.

`C=CC(=O)NCc1nc(C(=O)O)c(C)s1`: the Inhibition % is 5.67%.

`CN(C)c1oc(-c2ccccc2)nc1C#N`: the Inhibition % amounted to 3.45%.

In the case of `O=C(CCl)NCC(=O)Nc1ccccc1Br`, the Inhibition % is listed as -1.05%.

`Cl.O=C1OCCC12CCNCC2`: the Inhibition % is 2.48%.

With `Cn1cc(C(=O)O)c(CCCCl)n1`, the Inhibition % turned out to be 6.81%.

Consider `CCN(Cc1ccc2c(c1)OCO2)C(=O)CCl`, for which the Inhibition % is 9.14%.

`COc1ccc(C(C)(C)C)cc1S(=O)(=O)n1cccn1`: the Inhibition % worked out at 5.01%.

With `COc1cccc(OC)c1OCC1CO1` (stereo not shown), the Inhibition % is 9.03%.

On to `Cc1cc(C(=O)CCl)c(C)n1-c1ccc(F)cn1`, for which the Inhibition % was 5.68%.

Take `C=CC(=O)NC1CCCC1Cc1ccccn1` (stereo not shown): the Inhibition % stood at 5.16%.

On to `Cc1ccc(-c2csc(NC(=O)CCl)n2)cc1C`, for which the Inhibition % worked out at 0.444%.

For the compound `C=CC(=O)N1CCN(C2CC2)C(=O)C1`, the Inhibition % amounted to 11.1%.

On to `O=S(=O)(c1ccc(Cl)c(Cl)c1)n1cccn1`, for which the Inhibition % is -1.82%.

As to `CN(CC(=O)Nc1ccccc1Cl)C(=O)CCl`, the Inhibition % is reported as 42.3%.

`COc1c(C2CCCN2C2CC(C)OC2=O)c(C)nn1C` (stereo not shown): the Inhibition % is listed as -0.963%.

Consider `NC(=O)c1csc(C(=O)CCl)c1`, for which the Inhibition % is listed as 101%.

Take `O=C(CCl)N1c2ccccc2Sc2ccccc21`: the Inhibition % was 1.08%.

On to `CCOCCCn1c(S)nc2ccccc2c1=O`, for which the Inhibition % was determined as 5.07%.

In the case of `O=C(CCl)NC(=O)NCc1ccco1`, the Inhibition % came to 9.61%.

As for `Cc1noc(C)c1Cn1cnc(C#N)n1`, the Inhibition % was determined as 6.19%.

Take `C=CC(=O)NCCN1C(=O)CNC1=O`: the Inhibition % is on record as 12.9%.

Take `CC(C(=O)O)n1c(S)nc2ccccc2c1=O` (stereo not shown): the Inhibition % was determined as 7.43%.

Take `Cc1ccc(-c2nc(SC3CCOC3=O)n[nH]2)cc1` (stereo not shown): the Inhibition % worked out at 3.13%.

As for `Clc1ccc(OCC2CO2)cc1` (stereo not shown), the Inhibition % is on record as 2.18%.

As for `Cc1ccc(-c2nnc(SC3CCOC3=O)n2C)cc1` (stereo not shown), the Inhibition % was 8.44%.

Turning to `C=CC(=O)N1CCCSc2ccccc21`, the Inhibition % is listed as 5.67%.

In the case of `CN(C)S(=O)(=O)c1ccc(S)nc1`, the Inhibition % was 31.2%.

For `Cl.O=C(CCl)c1ccncc1`, the Inhibition % is 95.3%.

Take `C=CC(=O)NCc1ccnc(N2CCOCC2)c1`: the Inhibition % was 13.5%.

For the compound `C=CC(=O)N1CC(c2nc(C)no2)C1`, the Inhibition % was found to be 9.14%.

Regarding `O=C(CCl)N(C1=CCCCC1)C1CC1`, the Inhibition % came out at 28.7%.

Consider `C=CC(=O)N1CCC(N)CC1.Cl`, for which the Inhibition % turned out to be 5.59%.

Turning to `CC(NC(=O)NC(=O)CCl)C1CC2CCC1C2` (stereo not shown), the Inhibition % is on record as 9.23%.

Turning to `O=C(CCl)Nc1cccc(I)c1`, the Inhibition % is reported as 41%.

Consider `O=C1OCCC1N1CCOC(c2ccc(Cl)cc2)C1` (stereo not shown), for which the Inhibition % was 7.62%.

In the case of `O=S(=O)(c1cccnc1)N1CCC(B(O)O)C1` (stereo not shown), the Inhibition % is -1.81%.
